# From PMC4336329 (PLoS ONE, 2015)
# Screen size: about 310,000 compounds; about 2,200 (0.71%) showed an effect of 50% or more. The effect is printed as a negative number. This is one part of the list.
# Target: human ether-à-go-go-related gene (hERG) potassium channel (human, UniProt Q12809)
# Assay: primary screen, population patch clamp on CHO cells stably expressing hERG
# human ether-à-go-go-related gene (hERG) potassium channel, sequence (Q12809 whole entry, looked up): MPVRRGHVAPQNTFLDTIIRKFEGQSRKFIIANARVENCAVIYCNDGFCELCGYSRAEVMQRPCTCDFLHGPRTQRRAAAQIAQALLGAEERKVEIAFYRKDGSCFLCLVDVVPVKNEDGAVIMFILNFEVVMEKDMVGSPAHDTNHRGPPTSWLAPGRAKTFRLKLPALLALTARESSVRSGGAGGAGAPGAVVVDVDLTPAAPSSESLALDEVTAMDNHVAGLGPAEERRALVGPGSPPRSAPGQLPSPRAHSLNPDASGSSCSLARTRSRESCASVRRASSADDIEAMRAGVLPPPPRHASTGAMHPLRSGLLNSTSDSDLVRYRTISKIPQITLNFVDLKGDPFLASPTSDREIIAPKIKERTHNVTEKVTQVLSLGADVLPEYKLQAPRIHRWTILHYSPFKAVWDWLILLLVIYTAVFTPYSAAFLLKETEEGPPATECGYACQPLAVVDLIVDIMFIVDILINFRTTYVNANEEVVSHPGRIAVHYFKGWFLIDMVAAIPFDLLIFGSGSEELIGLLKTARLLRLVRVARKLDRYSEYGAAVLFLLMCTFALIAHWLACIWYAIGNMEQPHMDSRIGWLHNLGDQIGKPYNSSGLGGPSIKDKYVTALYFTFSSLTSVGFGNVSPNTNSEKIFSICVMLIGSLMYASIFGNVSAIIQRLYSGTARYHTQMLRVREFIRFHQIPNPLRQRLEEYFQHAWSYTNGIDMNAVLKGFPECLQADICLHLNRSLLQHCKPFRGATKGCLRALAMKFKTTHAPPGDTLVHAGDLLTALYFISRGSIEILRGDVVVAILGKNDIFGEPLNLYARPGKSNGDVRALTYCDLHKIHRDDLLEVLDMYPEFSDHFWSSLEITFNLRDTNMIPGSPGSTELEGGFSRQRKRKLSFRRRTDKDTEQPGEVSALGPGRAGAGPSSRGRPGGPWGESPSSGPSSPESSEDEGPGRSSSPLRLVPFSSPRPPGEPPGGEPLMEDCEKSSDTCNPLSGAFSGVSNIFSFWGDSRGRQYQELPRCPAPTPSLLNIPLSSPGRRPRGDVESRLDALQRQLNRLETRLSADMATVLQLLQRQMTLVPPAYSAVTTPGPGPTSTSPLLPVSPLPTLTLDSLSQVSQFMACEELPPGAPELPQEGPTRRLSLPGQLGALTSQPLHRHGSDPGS
row,SMILES,"hERG current change (%, negative = inhibition) at 1uM [%]"
1,COc1cccc(NC(=O)CN(c2ccc(C)cc2)S(=O)(=O)c2c(C)nn(C)c2C)c1,-1.17
2,Cc1sc(NC(=O)CSc2nnc(C)c(=O)[nH]2)c(C#N)c1C,17
3,Cc1ccc(CC(=O)Nc2nccs2)cc1C,9.56
4,COc1cccc(/C=C2\SC(=O)N(CC(=O)NCCCn3ccnc3)C2=O)c1,9.38
5,Cc1ccc(C)c(SCC(=O)NCC(c2ccco2)N2CCCCC2)c1 (stereo not shown),14.3
6,Cc1ccnc(NC(=O)CNC(=O)c2ccc3c(c2)OCO3)c1,6.89
7,Cc1ccc(NC(=O)c2cc(N3C(=O)C=CC3=O)ccc2N2CCOCC2)cc1Cl,14.4
8,O=C1CCC(=O)N1c1ccc(-c2nc3sc4c(c3c(=O)o2)CCC4)cc1,-4.84
9,CCOc1nc2ccccc2cc1C=O,4.75
10,Nc1ccccc1SCC(=O)Nc1ccc2c(c1)OCO2,9.58
11,Cc1ccc(N(C(=O)Cn2nnc3ccccc32)C(C(=O)NCc2ccco2)c2cccnc2)cc1 (stereo not shown),3.55
12,COC(=O)CCCCCC(CCC(=O)OC)NC(C)=O (stereo not shown),9.7
13,COc1ccc(Br)cc1/C=C1\Oc2ccccc2NC1=O,11.3
14,O=C(NCC(c1ccco1)N1CCCCC1)c1ccc(NS(=O)(=O)c2ccc(F)cc2)cc1 (stereo not shown),2.07
15,COc1cccc(CC(NC(C)=O)C(=O)NC2CCN(c3nnnn3-c3ccccc3)CC2)c1OC (stereo not shown),18.4
16,Cc1ccccc1C(O)c1cccnc1 (stereo not shown),20.8
17,CC1(C)O[C@@H]2[C@H](O1)[C@@H](CO)O[C@H]2n1ccc(=O)[nH]c1=O,12.2
18,NC(=O)C1CCN(C(=O)/C=C/c2ccco2)CC1,18.9
19,COC(=O)c1ccc(-c2nc(O)c(C)s2)cc1,9.1
20,COc1ccc(CNC(=O)c2ccc(N(C)S(=O)(=O)c3ccc(C)cc3)cc2)cc1,10.1
21,Cc1ccc(N(C(=O)CS(=O)CC(=O)Nc2ccc(F)cc2)C(C(=O)NC2CCCCC2)c2ccco2)cc1 (stereo not shown),13.2
22,CN(CCO)c1cc(NCCCN2CCC(Cc3ccccc3)CC2)c2nonc2c1[N+](=O)[O-],-4.81

row,SMILES,"hERG current change (%, negative = inhibition) at 1uM [%]"
1,Cl.O=C(CNCC1CCCO1)Nc1ccccc1-n1cccc1 (stereo not shown),-3.21
2,COc1cc(C(=O)NCCCn2ccnc2)cc(OC)c1OC.Cl,10.3
3,CCCCOC(=O)Nc1nnc(CCc2ccccc2)s1,15.8
4,O=C(COc1ccc(Br)cc1)NNC(=S)NCc1ccccc1,8.17
5,COC(=O)c1ccc(CSc2nc3c(c(=O)n2-c2ccc(F)cc2)SCC3)o1,6.74
6,Cc1nc(CSc2n[nH]c(=O)n2-c2ccccc2)cs1,-1.48
7,O=C(O)c1cccn1Cc1ccccc1F,11
8,O=C(O)C1C2C=CC(O2)C1C(=O)NC1CCCc2ccccc21 (stereo not shown),9.49
9,COc1ccc(NC(=O)c2cc3c(=O)n(C)c4ccccc4c3s2)cc1OC,7.24
10,Cc1ccccc1N(CC(=O)N1CCOCC1)S(C)(=O)=O,15.5
11,CCOC(=O)C1(Cc2ccc(OC)cc2)CCN(C(=O)CN2CCOC2=O)CC1,12.7
12,CCC(=O)Nc1ccc2oc(-c3ccccc3Br)nc2c1,9.07
13,O=C(O)CN1C(=O)/C(=C\c2cccc(OCc3ccc(F)cc3)c2)SC1=S,6.79
14,O=C(COC(=O)COc1cccc(C(F)(F)F)c1)NC1CCS(=O)(=O)C1 (stereo not shown),3.96
15,O=C(NCc1ccccc1)/C(=C/c1ccco1)NC(=O)c1ccco1,-0.0579
16,O=C(C[n+]1ccc2ccccc2c1)c1cccc2ccccc12.[Br-],-34.4
17,COc1ccc(N2CCN(C3CCCN(C(=O)C4=C(C)OCCO4)C3)CC2)cc1 (stereo not shown),7.16
18,CCOC(=O)Cn1c(-c2nonc2NC(=O)c2ccccc2F)nc2ccccc21,10.5
19,Cc1[nH]c2ccccc2c1/C=C/C(=O)c1ccncc1,11.7
20,Cc1ccc(-n2nc3c(=O)n(CC(=O)NCCc4ccco4)nc(C)c3c2C)cc1,13
21,C=CCn1c(SCC(=O)/C(C#N)=C(\C)N)nc2sc(CC)cc2c1=O,15.8
